Results from PubChem BioAssay AID651820 (National Center for Advancing Translational Sciences (NCATS), 2012).
Values joined by “and” are separate entries in the source; they are usually repeats but may differ in a detail not shown here. Equal values may be shown once. The campaign covered roughly 340,000 compounds. About 12,000 (3.5%) were called active. This list was built around the results that the source calls inconclusive (neither active nor inactive); the mix of calls is not that of the screen. Calls come from the whole dose curve; as a rule, active = well fitted inhibition curve with a large enough effect; inconclusive = small, poorly fitted or top-dose-only effect, or another doubt; inactive = no such curve, though single readings can be large or run the other way. A potency beside an inconclusive call is a rough fit, not a confirmed value.

Experiment: qHTS Assay for Inhibitors of Hepatitis C Virus (HCV)
Details: Huh7.5.1 HCVcc-Cre (HCVcc is cell-culture hepatitis C virus) infection, luciferase reporter, 44 h; activity change, negative = inhibition: at 41.8 µM (top of the series)
Method in brief: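 After 44 h co-culture of compound, cells and HCVcc-Cre (~0.5 moi), substrate is added for 15 min at room temperature and luciferase measured over 15 sec. Cells were seeded at 1,000/well and pre-cultured 4 h.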
% is set by controls: 0 for no effect and ±100 for the full control effect; potency is the fitted concentration of half-maximal effect; tags give direction and shape of the fitted curve.

For `CCCCC(=O)NCCc1ccc(S(N)(=O)=O)cc1`, which “activity change, negative = inhibition” value is on record?
Its value is inactive: 3.71%.

For `COc1ccc(-n2ncc3c(=O)n(CC(=O)NC(C)C)cnc32)cc1`, which “activity change, negative = inhibition” value is on record?
The value was inactive: 6.2%.

Which Potency does the source give for `CC(=O)C1=C(O)C(=O)N(CCCCCC(=O)O)C1c1ccc(N(C)C)cc1` (stereo unspecified) here?
The Potency was inconclusive: 5.62 µM [inhibitor, single point].

Which “activity change, negative = inhibition” value does the source give for `COc1cc(/C=N/NC(=O)c2ccc3c(c2)OCCO3)cc(Br)c1O` here?
Its value is inactive: -4.91%.

Which Potency does the source give for `FC(F)Oc1ccccc1/C=N/n1cnc2ccccc21` here?
The Potency was inconclusive: 8.91 µM [inhibitor, partial curve].

With `COc1cc(NC(=O)c2ccc(-c3ccc(Br)cc3)o2)ccc1NC(=O)C(C)C` as the compound, how does the Potency read?
Its Potency is inconclusive: 2.24 µM [inhibitor, full curve].

Which “activity change, negative = inhibition” value does the source give for `O=C(O)C(c1ccccc1)C1CCCCC1O` (stereo unspecified) here?
The value was inactive: 14.4%.

For `CCCOP(=O)(OCCC)C(Nc1cccc(C(F)(F)F)c1)c1ccc(C)cc1` (stereo unspecified), which Potency is on record?
Its Potency is inconclusive: 8.91 µM [inhibitor, partial curve].

With `Cc1ccc(-n2nnnc2SCCNS(=O)(=O)c2ccccc2)cc1C` as the compound, how does the Potency read?
Its Potency is inconclusive: 5.62 µM [inhibitor, partial curve].

For `O=C(CSc1nnnn1-c1ccc(F)cc1)Nc1nc2ccccc2s1`, which “activity change, negative = inhibition” value is on record?
The value was inactive: 1.96%.

For `CCCNC(=O)OCCC12CC3CC(CC(C3)C1)C2`, which “activity change, negative = inhibition” value is on record?
Its value is inactive: 11.4%.

Which Potency does the source give for `Cc1ccc(SCC(=O)Nc2cc(S(=O)(=O)N3CCCCC3)ccc2C)cc1` here?
Its Potency is inconclusive: 14.1 µM [inhibitor, single point].

With `CC(=O)C1=NN(c2ccccc2)C2(S1)S/C(=C\c1ccccc1)C(=O)N2c1ccccc1` (stereo unspecified) as the compound, how does the Potency read?
The Potency was inconclusive: 12.6 µM [inhibitor, single point].

With `CCOC(=O)Nc1ccc2c(CN3C(=O)NC4(CCCC4)C3=O)cc(=O)oc2c1` as the compound, how does the Potency read?
The Potency was inconclusive: 3.16 µM [inhibitor, full curve] and inconclusive: 31.6 µM [inhibitor, single point].

Which Potency does the source give for `Cc1nn(-c2ccccc2)c2sc(C(=O)N(CC(=O)NC3CCCC3)Cc3ccco3)cc12` here?
The Potency was inconclusive: 6.31 µM [inhibitor, full curve].

Which Potency does the source give for `CC1=NNC(=O)/C1=C\c1cn(-c2ccccc2)nc1-c1cccs1` here?
The Potency was inconclusive: 25.1 µM [inhibitor, single point].

For `O=C(O)CC1S/C(=N/N=C/c2ccc([N+](=O)[O-])cc2)N(c2ccc(O)cc2)C1=O` (stereo unspecified), which “activity change, negative = inhibition” value is on record?
Its value is inactive: -11.7%.

With `Cc1ccc(C)c(S(=O)(=O)Nc2ccccc2C(=O)Nc2ccccc2N2CCOCC2)c1` as the compound, how does the Potency read?
Its Potency is inconclusive: 31.6 µM [inhibitor, single point].

Which “activity change, negative = inhibition” value does the source give for `CC1CCN(N=Nc2nc3c([nH]2)c(=O)n(C)c(=O)n3C)CC1` here?
Its value is inactive: 4.39%.

With `CNc1nc(SC)nc2ccccc12` as the compound, how does the Potency read?
The Potency was inconclusive: 22.4 µM [inhibitor, single point].

Which “activity change, negative = inhibition” value does the source give for `COC(=O)C1=C(c2ccc(F)cc2OCc2ccccc2)C[C@@H]2CC[C@H]1N2C(=O)NCc1ccccc1OC` here?
The value was inactive: -26.6%.

For `Oc1ccc(Cl)cc1CNc1cccc2cccnc12`, which “activity change, negative = inhibition” value is on record?
Its value is inactive: -7.31%.

For `CCOc1cc(/C=C2/SC(=Nc3ccccc3)N(Cc3cccnc3)C2=O)ccc1OCC#N`, which Potency is on record?
Its Potency is inconclusive: 10 µM [inhibitor, partial curve].

Which “activity change, negative = inhibition” value does the source give for `COc1ccccc1NCCC(=O)OCC(=O)Nc1cc([N+](=O)[O-])ccc1F` here?
The value was inactive: -0.837%.

With `CC1=NN(c2ccc(C(=O)OC(C)C)cc2)C(=O)/C1=C\C=C\c1ccco1` as the compound, how does the Potency read?
The Potency was inconclusive: 10 µM [inhibitor, partial curve].

With `COc1ccc(S(=O)(=O)N2CCC(C(=O)NCCC(=O)NCc3ccccc3OC)CC2)cc1` as the compound, how does the “activity change, negative = inhibition” value read?
Its value is inactive: 21.2%.

With `COC(=O)c1c(NC(=O)COC(=O)c2ccc(Cl)cc2[N+](=O)[O-])sc2c1CCCCC2` as the compound, how does the Potency read?
The Potency was inconclusive: 31.6 µM [inhibitor, single point].

Which “activity change, negative = inhibition” value does the source give for `O=C(O)c1ccccc1C(=O)Nc1cccc([N+](=O)[O-])c1` here?
Its value is inactive: 9.62%.

With `CCOc1ccccc1NC(=O)CSc1nnc(-c2ccccn2)n1Cc1ccco1` as the compound, how does the Potency read?
The Potency was inconclusive: 1 µM [inhibitor, full curve, poor fit].

Which Potency does the source give for `Cc1cc(C)c(S(=O)(=O)N2CCN(C(=O)c3c(C)nn(-c4ccccc4)c3Cl)CC2)c(C)c1` here?
Its Potency is inconclusive: 31.6 µM [inhibitor, single point].

Which Potency does the source give for `O=C(c1ccc(F)cc1)N1CCC(C(=O)N(Cc2ccccc2)c2ccccc2)CC1` here?
Its Potency is inconclusive: 14.1 µM [inhibitor, single point].

Which Potency does the source give for `O=c1c2c(nc3c(-c4cccc(Br)c4)c[nH]n13)CCCC2` here?
The Potency was active: 6.31 µM.

With `CCOC(=O)C1C(=O)CC(C)(O)C(C(=O)OCC)C1c1cc(Br)ccc1OC` (stereo unspecified) as the compound, how does the “activity change, negative = inhibition” value read?
Its value is inactive: 8.93%.

With `COc1ccc(N2C(=O)CC(NC3CCCCNC3=O)C2=O)cc1` (stereo unspecified) as the compound, how does the “activity change, negative = inhibition” value read?
Its value is inactive: 4.8%.

Which Potency does the source give for `CCN(CC)c1ccc(C(=O)N/N=C(\C)c2ccc(OC)c(OC)c2)cc1` here?
Its Potency is inconclusive: 35.5 µM [inhibitor, single point].

Which “activity change, negative = inhibition” value does the source give for `CC(C)(C)C(=O)Cn1c(NCCCO)nc2ccccc21` here?
The value was inactive: 3.17%.

With `CCn1c(=O)c(C(=O)NNC(=O)c2ccccc2Br)c(O)c2ccccc21` as the compound, how does the Potency read?
Its Potency is inconclusive: 12.6 µM [inhibitor, single point].

With `CC1CCN(C(c2ccccc2)c2nnnn2C(C)(C)C)CC1` (stereo unspecified) as the compound, how does the “activity change, negative = inhibition” value read?
The value was inactive: 21%.

With `Nc1nnc(SCc2nc3scc(-c4ccccc4)c3c(=O)[nH]2)s1` as the compound, how does the Potency read?
Its Potency is inconclusive: 11.2 µM [inhibitor, partial curve].

For `FC(F)(F)c1nnc2c3ccccc3c(Cl)nn12`, which Potency is on record?
The Potency was inconclusive: 31.6 µM [inhibitor, single point].

For `COc1ccc2[nH]c(=O)c(CN(CC3CCCO3)C(=S)Nc3ccccc3)cc2c1` (stereo unspecified), which Potency is on record?
The Potency was inconclusive: 22.4 µM [inhibitor, single point].

Which Potency does the source give for `Cc1cccc(C(C)n2nnc3ccccc32)c1O` (stereo unspecified) here?
The Potency was inconclusive: 31.6 µM [inhibitor, single point].

Which “activity change, negative = inhibition” value does the source give for `O=[N+]([O-])c1ccc(CN2CCCCCC2)s1` here?
Its value is inactive: 9.93%.

For `COc1ccc(OC)c(S(=O)(=O)N2CCC(C(=O)N3CCCC3)CC2)c1`, which “activity change, negative = inhibition” value is on record?
Its value is inactive: -7.02%.

Which Potency does the source give for `C=CCOC(=O)C1=C(C)NC(=S)NC1/C=C/c1ccccc1` (stereo unspecified) here?
The Potency was inconclusive: 10 µM [inhibitor, partial curve].

Which “activity change, negative = inhibition” value does the source give for `CC1C=CC=CC=CC=CC=CC=CC=CC(OC2OC(C)C(O)C(N)C2O)CC2OC(O)(CC(O)CC(O)C(O)CCC(O)CC(O)CC(=O)OC(C)C(C)C1O)CC(O)C2C(=O)O` (stereo unspecified) here?
Its value is inactive: -2.56%.
